Test results reported in US20250222123A1, “COMPOUND COMPRISING FC-BINDING UNIT, AND CONJUGATE PREPARED USING SAME” (ABTIS CO., LTD., priority 2022, published 2025).

Columns and labels:
[1] = tested on: CLDN18.2-positive cancer cell lines; assay: Cytotoxicity evaluation, summary over positive lines; assay type: cell-based
Experimental: (§1) Four types of cell lines (MIA PaCa-2˜CLDN18.2, PATU8988S, parental MIA PaCa-2 (CLDN18.2-), SNU601, NUGC-4, and AGS) were prepared. MIA PaCa-2˜CLDN18.2 and PATU8988S are CLDN18.2-positive pancreatic cancer cell lines. MIA PaCa-2 (CLDN18.2-) is a CLDN18.2-negative pancreatic cancer cell line. SNU601 and NUGC-4 are CLDN18.2-positive gastric cancer cell lines. AGS is a CLDN18.2-negative gastric cancer cell line.
(§2) The prepared cell lines were cultured in DMEM comprising 10% FBS and 1% penicillin/streptomycin (MIA PaCa-2˜CLDN18.2, and MIA PaCa-2 (CLDN18.2-)), RPMI1640 containing 10% FBS and 1% penicillin/streptomycin (SNU601, NUGC-4, and AGS), and DMEM comprising 5% FBS, 5% horse serum, 1% penicillin/streptomycin, and […] L-glutamine (PATU8988S) in an incubator under the conditions of 37° C. and 5% CO2. […]
(§3) Changes in cell viability according to treatment of each test substance were measured using a method which is the same as the CellTiter-Glo manual. At this time, the measured values are illustrated in FIGS. 45 to 50.
(§4) The measured results were used for regression analysis in GraphPad PRISM® 9.0 software to calculate IC50. The cytotoxicity of each test substance was evaluated based on the calculated values.

[2] = tested on: CLDN18.2-negative cell lines; assay: Cytotoxicity evaluation, summary over negative lines; assay type: cell-based; details: up to the highest treatment concentration (10000 ng/ml)
Experimental: as §1, §2, §3, §4

B1: ADC-A (conjugate)
heavy: QVQLVESGGGVVQPGRSLRLSCAASGFSLTTYGVHWVRQAPGKGLEWVAVIWAGGSTNYNSALMSRFTISRDNSKNTLYLQMNSLRAEDTAVYYCARAAYYGNGLDYWGQGTMVTVSS[… human IgG1 constant region …]
light: DIVMTQSPLSLPVTPGEPASISCKSSQTLLNSGNQKNYLTWYLQKPGQSPQLLIYWASTGESGVPDRFSGSGSGTDFTLKISRVEAEDVGVYYCQNAYFYPFTFGGGTKVEIKRTVAAPSVFIFPPSDEQLKSGTASVVCLLNNFYPREAKVQWKVDNALQSGNSQESVTEQDSKDSTYSLSSTLTLSKADYEKHKVYACEVTHQGLSSPVTKSFNRGEC
**Q.** Which “IC50 value lower than that of ADC-B” value ([1]; ADC-B as control) does the source give for B1 here?
**A.** 10 to 35 fold

**Q.** And the “anticancer activity (in words)” value ([1]; regardless of cancer type)?
**A.** exhibited anticancer activity

**Q.** What about the “toxicity (in words)” value [2] of the same molecule?
**A.** almost no toxicity
